# Source: PubChem BioAssay (Tox21)
# Several values for one entry are separate records, joined by “and”; a condition that tells them apart may be missing. Identical values can stand only once. Inconclusive means that the source gave no clear call. Such entries were picked first, then a sample of the others. For some of these results: Where the call is inconclusive, the potency comes from a doubtful curve fit. Activity calls are given as the source filed them. Unless noted, calls come from the whole dose curve; as a rule, active = well fitted curve in the direction sought with a large enough effect in the repeat runs; inconclusive = weak or mixed curves; inactive = no such curve, though single readings can be large; an effect the other way counts as inactive or inconclusive.
# How the values were obtained:
# [1] = qHTS assay for small molecule agonists of the antioxidant response element (ARE) signaling pathway (AID 743202; active = well fitted activation curve with a large enough effect in the signal ratio in the repeat runs, not every such curve was filed as active; inconclusive = weak or mixed curves, or effect the other way; inactive = no such curve, though single readings can be large or run the other way; the % refers to the signal ratio; note: potency is the fitted concentration of half-maximal effect; for activation: % is set by controls: 0 for no effect and ±100 for the full control effect); conditions: HepG2 ARE-bla reporter, beta-lactamase FRET, 16 h; activation: at 73.3 µM (top of the series) unless noted
# Procedure, shortened: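 Read-out: LiveBLAzer B/G FRET substrate fluorescence after 2 h at room temperature, following 16 h compound treatment at 37 C of HepG2 cells carrying an ARE-driven beta-lactamase reporter.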
# [2] = molecular target: Peroxisome proliferator-activated receptor delta (Homo sapiens) (UniProt Q03181); experiment: qHTS assay to identify small molecule agonists of the peroxisome proliferator-activated receptor delta (PPARd) signaling pathway (AID 743212; calls by dose curve; note: potency is the fitted concentration of half-maximal effect); conditions: HEK293H PPARd-UAS-bla, beta-lactamase FRET ratio, 17 h; activation: at 62.6 µM (top of the series) unless noted
# Sequence of UniProt Q03181 (Q03181 whole entry, looked up): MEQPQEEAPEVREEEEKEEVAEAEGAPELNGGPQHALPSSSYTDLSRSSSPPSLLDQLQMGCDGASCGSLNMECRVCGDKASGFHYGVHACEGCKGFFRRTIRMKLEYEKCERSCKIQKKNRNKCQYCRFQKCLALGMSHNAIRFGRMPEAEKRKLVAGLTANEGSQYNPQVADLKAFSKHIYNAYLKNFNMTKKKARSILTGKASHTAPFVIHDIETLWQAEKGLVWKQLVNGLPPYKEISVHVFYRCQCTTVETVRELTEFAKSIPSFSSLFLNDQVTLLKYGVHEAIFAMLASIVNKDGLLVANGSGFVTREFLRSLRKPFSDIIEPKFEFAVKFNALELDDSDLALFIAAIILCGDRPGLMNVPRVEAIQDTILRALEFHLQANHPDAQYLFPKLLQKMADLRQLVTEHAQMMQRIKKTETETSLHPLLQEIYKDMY
# Procedure, shortened: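 GeneBLAzer PPARd UAS-bla HEK293H cells (beta-lactamase reporter under UAS control), plated and rested 5 h at 37 C, then exposed to compounds in DMSO at 37 C; LiveBLAzer B/G FRET substrate added, 2 h room temperature, fluorescence read.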
# [3] = molecular target: Peroxisome proliferator-activated receptor delta (Homo sapiens) (UniProt Q03181); experiment: qHTS assay to identify small molecule antagonists of the peroxisome proliferator-activated receptor delta (PPARd) signaling pathway (AID 743215; active = well fitted inhibition curve with a large enough effect in the signal ratio in the repeat runs, not every such curve was filed as active; inconclusive = weak or mixed curves, or effect the other way; inactive = no such curve, though single readings can be large or run the other way; the % refers to the signal ratio;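 note: cells stimulated with agonist L165041 at 300 nM final during compound exposure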; note: potency is the fitted concentration of half-maximal effect); conditions: HEK293H PPARd-UAS-bla, beta-lactamase FRET ratio, antagonist, 17 h
# Procedure, shortened: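 PPARd-bla HEK293H cells (UAS-bla reporter) preincubated 5 h, then given compound plus 300 nM final L165041 agonist for 17 h at 37 C. Beta-lactamase activity read by LiveBLAzer B/G FRET substrate fluorescence after 2 h at room temperature.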
# [4] = molecular target: Vitamin D3 receptor (Homo sapiens) (UniProt P11473); experiment: qHTS assay to identify small molecule agonists of the vitamin D receptor (VDR) signaling pathway (AID 743222; calls by dose curve; note: potency is the fitted concentration of half-maximal effect); conditions: HEK293T VDR-UAS-bla, beta-lactamase FRET ratio, 16 h; activation: at 63.5 µM (top of the series) unless noted
# Sequence of UniProt P11473 (P11473 whole entry, looked up): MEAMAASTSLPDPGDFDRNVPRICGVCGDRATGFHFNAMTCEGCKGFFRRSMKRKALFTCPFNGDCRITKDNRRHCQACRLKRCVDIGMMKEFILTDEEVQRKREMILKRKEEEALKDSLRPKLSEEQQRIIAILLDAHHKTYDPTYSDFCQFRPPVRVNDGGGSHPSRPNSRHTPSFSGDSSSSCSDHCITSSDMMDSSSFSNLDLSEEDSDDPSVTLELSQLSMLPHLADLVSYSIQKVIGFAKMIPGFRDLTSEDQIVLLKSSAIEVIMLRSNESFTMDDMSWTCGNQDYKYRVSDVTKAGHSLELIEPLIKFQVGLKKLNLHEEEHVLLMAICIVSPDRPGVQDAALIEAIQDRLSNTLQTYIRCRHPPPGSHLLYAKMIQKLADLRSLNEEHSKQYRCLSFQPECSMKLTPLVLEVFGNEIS
# Procedure, shortened: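 VDR-bla cells plated 4 h at 37 C, then exposed to compounds for 16 h at 37 C. Beta-lactamase reporter activity measured by fluorescence after 2 h room-temperature loading with LiveBLAzer B/G FRET substrate.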
# [5] = qHTS assay to identify small molecule agonists of the vitamin D receptor (VDR) signaling pathway - cell viability counter screen (AID 743224); conditions: VDR-bla HEK293T viability, CellTiter-Glo luminescence, 16 h; activity change, negative = cytotoxicity: at 62.6 µM (top of the series); note: nearly all actives have a fitted effect of over 50% in size; note: potency is the fitted concentration of half-maximal effect
# Procedure, shortened: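 VDR-bla cells, 4 h after plating, exposed to compounds for 16 h at 37C; viability then read in the same wells as CellTiter-Glo luminescence after 30 min at room temperature, following the bla FRET read.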
# [6] = qHTS assay to identify small molecule agonists of the peroxisome proliferator-activated receptor delta (PPARd) signaling pathway - cell viability counter screen (AID 743211); conditions: PPARd-bla HEK293H viability, CellTiter-Glo luminescence, 17 h; activity change, negative = cytotoxicity: at 62.6 µM (top of the series) unless noted; note: nearly all actives have a fitted effect of over 55% in size; note: potency is the fitted concentration of half-maximal effect
# Procedure, shortened: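 Viability of GeneBLAzer PPARd UAS-bla HEK293H cells was assessed after 17 h compound incubation at 37C, using CellTiter-Glo reagent added after the reporter read and luminescence recorded 30 min later.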
# [7] = molecular target: Bile acid receptor (Homo sapiens) (UniProt Q96RI1); experiment: qHTS assay to identify small molecule agonists of the farnesoid-X-receptor (FXR) signaling pathway (AID 743220; active = well fitted activation curve with a large enough effect in the signal ratio in the repeat runs, not every such curve was filed as active; inconclusive = weak or mixed curves, or effect the other way; the % refers to the signal ratio; note: % is set by controls: 0 for no effect and ±100 for the full control effect); conditions: HEK293T FXR-UAS-bla, beta-lactamase FRET ratio, 16 h; activation: at 62.6 µM (top of the series) unless noted
# Sequence of UniProt Q96RI1 (Q96RI1 whole entry, looked up): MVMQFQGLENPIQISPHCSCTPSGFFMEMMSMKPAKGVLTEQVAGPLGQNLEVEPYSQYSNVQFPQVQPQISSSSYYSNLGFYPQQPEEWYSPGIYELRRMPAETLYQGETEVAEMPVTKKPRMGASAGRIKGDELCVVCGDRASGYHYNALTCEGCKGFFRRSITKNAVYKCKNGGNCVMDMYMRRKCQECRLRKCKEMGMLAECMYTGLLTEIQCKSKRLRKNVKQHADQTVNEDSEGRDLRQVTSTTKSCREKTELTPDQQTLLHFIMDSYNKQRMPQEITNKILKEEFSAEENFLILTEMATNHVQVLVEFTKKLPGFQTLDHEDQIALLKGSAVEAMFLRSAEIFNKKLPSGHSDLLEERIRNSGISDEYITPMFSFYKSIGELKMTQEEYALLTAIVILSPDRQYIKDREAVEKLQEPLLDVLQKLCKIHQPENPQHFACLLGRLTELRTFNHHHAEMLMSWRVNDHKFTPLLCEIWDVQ
# Procedure, shortened: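 Beta-lactamase reporter under UAS control in GeneBLAzer FXR HEK 293T cells (5000/well) measured with LiveBLAzer FRET substrate after 2 h at room temperature. Compound exposure lasted 16 h at 37C.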
# [8] = molecular target: Vitamin D3 receptor (Homo sapiens) (UniProt P11473); experiment: qHTS assay to identify small molecule antagonists of the vitamin D receptor (VDR) signaling pathway (AID 743223; active = well fitted inhibition curve with a large enough effect in the signal ratio in the repeat runs, not every such curve was filed as active; inconclusive = weak or mixed curves, or effect the other way; inactive = no such curve, though single readings can be large or run the other way; the % refers to the signal ratio; note: % is set by controls: 0 for no effect and ±100 for the full control effect); conditions: VDR-UAS-bla HEK293T, beta-lactamase FRET ratio, 16 h
# Procedure, shortened: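 Fluorescence from LiveBLAzer B/G FRET substrate, read after 2 h at room temperature, reflects beta-lactamase reporter activity in VDR-bla cells treated 16 h at 37C with compounds and agonist 1alpha,25-dihydroxyvitamin D3 (3 nM final).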
# [9] = molecular target: Bile acid receptor (Homo sapiens) (UniProt Q96RI1); experiment: qHTS assay to identify small molecule antagonists of the farnesoid-X-receptor (FXR) signaling pathway (AID 743217; active = well fitted inhibition curve with a large enough effect in the signal ratio in the repeat runs, not every such curve was filed as active; inconclusive = weak or mixed curves, or effect the other way; inactive = no such curve, though single readings can be large or run the other way; the % refers to the signal ratio; note: % is set by controls: 0 for no effect and ±100 for the full control effect); conditions: HEK293T FXR-UAS-bla, beta-lactamase ratio, CDCA-stimulated, 16 h; activity change, negative = inhibition: at 62.6 µM (top of the series) unless noted
# Procedure, shortened: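 FXR-UAS-bla HEK 293T cells (beta-lactamase reporter) given compound plus chenodeoxycholic acid (50 uM final), 16 h at 37C. LiveBLAzer B/G FRET substrate added for 2 h at room temperature; fluorescence read.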
# [10] = qHTS assay to identify small molecule antagonists of the peroxisome proliferator-activated receptor delta (PPARd) signaling pathway - cell viability counter screen (AID 743213); conditions: PPARd-bla HEK293H viability, CellTiter-Glo luminescence, 17 h; viability change, negative = cytotoxic: at 62 µM (top of the series) unless noted; note: nearly all actives have a fitted effect of over 50% in size; note: potency is the fitted concentration of half-maximal effect
# Procedure, shortened: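 Same-well viability: cells pre-incubated 5 h, dosed with compound plus 300 nM L165041, kept 17 h at 37 C, FRET substrate 2 h RT, then CellTiter-Glo 30 min RT and luminescence.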
# [11] = qHTS assay to identify small molecule agonists of the farnesoid-X-receptor (FXR) signaling pathway - cell viability counter screen (AID 743218); conditions: FXR-bla HEK293T viability, CellTiter-Glo luminescence, 16 h; viability change, negative = cytotoxic: at 62.6 µM (top of the series) unless noted; note: nearly all actives have a fitted effect of over 45% in size; note: potency is the fitted concentration of half-maximal effect
# Procedure, shortened: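 FXR-UAS-bla HEK 293T cells exposed to compounds for 16 h at 37C. Cytotoxicity read in the same wells by CellTiter-Glo luminescence after 30 min at room temperature, following the beta-lactamase FRET read.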
# [12] = qHTS assay to identify small molecule antagonists of the farnesoid-X-receptor (FXR) signaling pathway - cell viability counter screen (AID 743221; active = well fitted cell-killing curve with a large enough effect in the repeat runs, not every such curve was filed as active; inconclusive = weak or mixed curves, or effect the other way; inactive = no such curve, though single readings can be large or run the other way; note: potency is the fitted concentration of half-maximal effect; nearly all actives have a fitted effect of over 50% in size); conditions: FXR-bla HEK293T viability, CellTiter-Glo luminescence, 16 h; activity change, negative = cytotoxicity: at 62.6 µM (top of the series) unless noted
# Procedure, shortened: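 Quantitative HTS of the Tox21 10K library run in parallel with the beta-lactamase reporter read. HEK 293T cells carrying a UAS-driven bla reporter got compound and 50 uM CDCA (final) for 16 h; ATP-based luminescence followed.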
# [13] = ratio activity, negative = inhibition: at 62 µM (top of the series) unless noted
# [14] = activity change, negative = inhibition: at 61 µM (top of the series) unless noted
# Tags give direction and shape of the fitted curve or compound fluorescence and quenching.
smiles,measurement,setting,value
Cc1cc(N)n(-c2ccccc2)n1,Potency,[1],inactive
same,Potency,[2],inactive
same,Potency,[3]; [13],inactive
same,Potency,[4],inactive
same,Potency,[5],inactive
CN(C)CCN1C(=O)c2ccccc2N(C)c2ccccc21,Potency,[1],inactive
same,Potency,[6],"inconclusive: 7.5 µM [cytotoxic, single point]"
same,Potency,[7],inactive
same,Potency,[8]; [14],inactive
O=C=NCCCCCCN=C=O,Potency,[1],inactive
same,Potency,[2],inactive
same,"activity change, negative = inhibition",[9],inconclusive: 12.7% [at 81.1 µM]
CCCCNc1c(C(=O)OCC)c(C)nc2c1cnn2CC,Potency,[1],"inconclusive: 23.7 µM [rising, partial curve, poor fit]"
same,Potency,[6],"inconclusive: 33.5 µM [cytotoxic, single point]"
same,"activity change, negative = inhibition",[8]; [14],inconclusive: -32.4%
CC(C)C(=O)OCCOc1ccccc1,Potency,[1],inactive
same,Potency,[10],"inconclusive: 0.0871 µM [cytotoxic, full curve, poor fit]"
same,Potency,[11],"inconclusive: 0.0389 µM [rising, full curve, poor fit]"
same,Potency,[8]; [14],inactive
Cc1cccc2n[nH]nc12,activation,[1],inconclusive: -4.78%
same,Potency,[10],"inconclusive: 4.9 µM [cytotoxic, full curve, poor fit]"
same,Potency,[3]; [13],"inconclusive: 1.95 µM [rising, full curve, poor fit]"
same,Potency,[4],"inconclusive: 17.4 µM [rising, partial curve, poor fit]"
same,Potency,[8]; [14],inactive
same,Potency,[5],"inconclusive: 21.9 µM [cytotoxic, single point]"
C[N+](C)(C)CC[N+]1(C)Cc2c(Cl)c(Cl)c(Cl)c(Cl)c2C1,activation,[1],inconclusive: 30.8%
same,Potency,[2],inactive
same,Potency,[3]; [13],inactive
same,Potency,[8]; [14],inactive
O=Cc1ccccc1O,Potency,[1],inactive
same,Potency,[10],inactive
same,Potency,[3]; [13],inactive
same,Potency,[11],"inconclusive: 61.7 µM [cytotoxic, single point]"
Cc1c(C)c2c(c(C)c1OC(=O)CCC(=O)O)CC[C@@](C)(CCC[C@H](C)CCC[C@H](C)CCCC(C)C)O2,activation,[1],inconclusive: 25.9% [at 94.8 µM]
same,"activity change, negative = inhibition",[9],inconclusive: -20.8% [at 81.1 µM]
same,Potency,[7],inactive
Cc1cccc(O)c1C,Potency,[1],inactive
same,"ratio activity, negative = inhibition",[3]; [13],inconclusive: 8.02% [at 80.4 µM]
same,"activity change, negative = inhibition",[8]; [14],inconclusive: -1.76% [at 78.8 µM]
CCN1CCN(c2cc(-c3ccc(F)cc3)c3c(n2)CCCCCC3)CC1,Potency,[1],"inconclusive: 5.8 µM [partial curve, poor fit]"
same,Potency,[6],"inconclusive: 14.6 µM [cytotoxic, partial curve, poor fit]"
same,activation,[2],inconclusive: 0.441% [at 29.1 µM]
CN1C(CSCC(F)(F)F)Nc2cc(Cl)c(S(N)(=O)=O)cc2S1(=O)=O (stereo unspecified),Potency,[1],"inconclusive: 26.6 µM [rising, partial curve]"
same,"ratio activity, negative = inhibition",[3]; [13],inconclusive: 13.4%
same,Potency,[8]; [14],inactive
CCN(CC)CCOc1ccccc1C(=O)CCc1ccccc1,activation,[1],inconclusive: -5.68%
same,Potency,[6],"inconclusive: 23.7 µM [cytotoxic, partial curve]"
same,Potency,[2],"inconclusive: 13.3 µM [rising, partial curve, poor fit]"
same,Potency,[10],"inconclusive: 29.8 µM [cytotoxic, partial curve, poor fit]"
same,Potency,[11],active: 11.9 µM
same,Potency,[12],"inconclusive: 21.1 µM [falling, partial curve]"
C=C1CCC2CC1C2(C)C (stereo unspecified),Potency,[1],inactive
same,Potency,[10],"inconclusive: 0.778 µM [cytotoxic, single point]"
CC(=O)CC(c1ccccc1)c1c(O)c2ccccc2oc1=O (stereo unspecified),activation,[1],inconclusive: 15.7%
same,Potency,[6],inactive
same,Potency,[10],inactive
same,"activity change, negative = inhibition",[8]; [14],inconclusive: 4.47% [at 78.8 µM]
same,"activity change, negative = inhibition",[8]; at 61 µM (top of the series),inactive: 22% and inactive: 0.742% and inactive: 0.356%
CCCCCCCCCC(=O)OC,Potency,[1],inactive
same,"ratio activity, negative = inhibition",[3]; at 62 µM (top of the series),inactive: 4.83%
same,"ratio activity, negative = inhibition",[3]; [13],inconclusive: -34.3%
same,"activity change, negative = inhibition",[9],inconclusive: 0.403%
same,"viability change, negative = cytotoxic",[11],inconclusive: 39.5%
CC(=O)Oc1ccccc1C(=O)O,activation,[1],inconclusive: -11.8%
same,Potency,[10],inactive
same,Potency,[4],inactive
O=C(O)C1(C(=O)O)CCC1.[NH2-].[NH2-].[Pt+2],Potency,[1],"inconclusive: 26.6 µM [rising, partial curve, poor fit]"
same,Potency,[10],"inconclusive: 33.5 µM [cytotoxic, single point]"
same,Potency,[9],inactive
O=C(OCc1ccccc1)c1ccccc1,Potency,[1],inactive
same,"activity change, negative = inhibition",[9],inconclusive: 13.3%
same,Potency,[11],"inconclusive: 17.4 µM [rising, partial curve, poor fit]"
same,Potency,[12],"inconclusive: 21.9 µM [falling, partial curve, poor fit] and inconclusive: 33.5 µM [rising, partial curve, poor fit]"
same,"activity change, negative = inhibition",[8]; [14],inconclusive: 1.61%
C=CC(=O)OCCCCCC,Potency,[1],inactive
same,Potency,[10],inactive
